Results taken from PMC7819943, “Rice protein-binding microarrays: a tool to detect cis-acting elements near promoter regions in rice”.
The list shows a part of the results.

target: T1, OsWOX13 (Oryza sativa, UniProt Q5QMM3 1-267); assay: protein-binding microarray (RPBM); PBS, 2% BSA, 51.3 ng/ul salmon testes DNA, 50 uM zinc acetate, 200 nM TF, 25 C, 1 h; high values mean tight binding; conditions: protein: recombinant; tags: N-terminal polyhistidine and DsRed monomer fusion (pET32a); label: CyDye5-dUTP incorporated in the synthesized complementary strand; 3' TTTTT single-stranded linker to array surface; dsDNA, one strand shown
T1 sequence: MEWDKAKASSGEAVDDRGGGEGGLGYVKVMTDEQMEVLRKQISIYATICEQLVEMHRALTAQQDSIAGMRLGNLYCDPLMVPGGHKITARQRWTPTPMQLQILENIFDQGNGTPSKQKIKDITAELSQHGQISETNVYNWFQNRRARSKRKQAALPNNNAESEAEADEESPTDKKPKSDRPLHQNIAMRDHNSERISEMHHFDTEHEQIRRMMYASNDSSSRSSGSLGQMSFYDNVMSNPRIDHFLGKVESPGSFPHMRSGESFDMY
Method in brief: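 Transcription factors, each fused N-terminally to a polyhistidine tag and DsRed, were expressed in E. coli BL21-CodonPlus and purified on Ni–NTA. A custom Agilent array was made double-stranded by primer extension with Cy5-dUTP and blocked with 2% BSA. It was incubated with 200 nM protein in PBS, 2% BSA, salmon testes DNA and 50 µM zinc acetate at 25 °C for 1 h, then washed. The binding signal is per-feature fluorescence intensity (arbitrary units) read on an Axon 4000B scanner.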

| Sequence | binding signal |
| --- | --- |
| GTTATTAGATTGTATAGTAAGAGTTTATTATTTAGCGACTCGGAGTCACCTAGTGCAG | 4340 fluorescence intensity (a.u.) |
| ATTCAAGATTTAACAATCACCAATTTTATTCTAAATAACACGGAGTCACCTAGTGCAG | 6120 fluorescence intensity (a.u.) |
| GTTTTCAAATCTAGATTGAAAGTTTTCAAATCCGGGTTAACGGAGTCACCTAGTGCAG | 18600 fluorescence intensity (a.u.) |
| CATATTATCCTAATTGATGTTATTACTAGTATTTCTTAATCGGAGTCACCTAGTGCAG | 13600 fluorescence intensity (a.u.) |
| TGTTAACTGGAGCGGAATTAATACAATTGCCATTTGTCTTCGGAGTCACCTAGTGCAG | 19900 fluorescence intensity (a.u.) |
| GAATGTGTGATTATCAGCATAGCCGAGATCAATTTCGAGGCGGAGTCACCTAGTGCAG | 5340 fluorescence intensity (a.u.) |
| GGTGAATCATGAAATCAAGCAAATTAAATCATTGTATAATCGGAGTCACCTAGTGCAG | 3560 fluorescence intensity (a.u.) |
| ATGACACATGCCGTTGATTGGTTGACACAGATCGGATTCGCGGAGTCACCTAGTGCAG | 46900 fluorescence intensity (a.u.) |
| AACTAAAATTACACCTTAATTACAATATACTTCACATAGCCGGAGTCACCTAGTGCAG | 15000 fluorescence intensity (a.u.) |
| AATTAGCTGATTTGCAAATGATTTCCACCGTGGTGTGACACGGAGTCACCTAGTGCAG | 35700 fluorescence intensity (a.u.) |
| GTAGTAATTGGTTTAACATTACTGTGCGAAATTTCAGTTGCGGAGTCACCTAGTGCAG | 38900 fluorescence intensity (a.u.) |
| CTTGTGTTTCAATTAAGAATACCGACAGCTGACGTGCCAGCGGAGTCACCTAGTGCAG | 6550 fluorescence intensity (a.u.) |
| CCTTTGATTTTCATGTGCTAGATGGAGAACTGATAGTGGTCGGAGTCACCTAGTGCAG | 19700 fluorescence intensity (a.u.) |
| CAAAATCAATCAATCAATCCAGCCCTGCCCTCCTTTCGGTCGGAGTCACCTAGTGCAG | 57900 fluorescence intensity (a.u.) |
| AATAATTCTAATTTCTTTTAAATAAGATGAATGATCAAATCGGAGTCACCTAGTGCAG | 3820 fluorescence intensity (a.u.) |
| TTAGATGACACGAGAGATGATAATTGTTATCTAGCTGTTCCGGAGTCACCTAGTGCAG | 5630 fluorescence intensity (a.u.) |
| ATTAAATCTATAATTTTGTGATACTTAAGTTTTAAACCTCCGGAGTCACCTAGTGCAG | 9610 fluorescence intensity (a.u.) |
| GGATAATGCCATTTATAAATTTTCAGGAGCTAATGGTCCACGGAGTCACCTAGTGCAG | 4520 fluorescence intensity (a.u.) |
| TATACTATTTCAATTTATCTAGTAAATCTCACACTAACTACGGAGTCACCTAGTGCAG | 3580 fluorescence intensity (a.u.) |
| AATTAATCACACGTTATTACCACCCCATTTTGTGTGAAACCGGAGTCACCTAGTGCAG | 12600 fluorescence intensity (a.u.) |
| CTGCAAATCAACTTCACAGCACATTCCCCATCCACCAACTCGGAGTCACCTAGTGCAG | 3740 fluorescence intensity (a.u.) |
| GTGATAGACTTGGTTCGATTGACAATTGAAGTCTGAATGGCGGAGTCACCTAGTGCAG | 26000 fluorescence intensity (a.u.) |
| ATTGTGGTCTAATTACCTAGACATCGAGCATGTGAAAACTCGGAGTCACCTAGTGCAG | 4310 fluorescence intensity (a.u.) |
